For 58 compounds, survival results are on record in PubChem BioAssay AID463173 (ICCB-Longwood Screening Facility, Harvard Medical School, 2010).

SMILES strings stand for the structures. Hit rate of the full screen: of about 52,000 compounds, about 4,300 (8.3%) were called active. Cut-off read from the data, not from the text of the source: active = survival mostly below about 52% (no sharp cut-off); inactive = mostly above about 56%. Some of the results follow.

For this assay, the system named is DeltatarO mutant. As to the kind of experiment: growth inhibition of S. aureus wild type versus tarO mutant, primary screen, teichoic acid synthesis inhibitors, RN4220, OD600 (AID 463173). To be noted: OD600, 18 h, stronger effect = lower value, screened at 18.75 µg/mL (by protocol).
Take `COc1ccccc1-c1nnn(CC#N)n1`: the survival was inactive: 100%. As to `O=S(=O)(NCC(Nc1ccc(Cl)cc1)c1ccccc1)c1ccccc1` (stereo not drawn), the survival is inactive: 66%.

For the compound `COc1ccc(-c2cn3nc(SCC(=O)Nc4ccc(C)c(Cl)c4)ccc3n2)cc1`, the survival was inactive: 94%. In the case of `COC(=O)c1ccc(NC(=O)CN2C(=O)c3cccc4cccc2c34)cc1`, the survival was inactive: 76%. Then `Cc1ccc(NC(c2ccc(Cl)cc2)c2nnc(-c3cccc(F)c3)o2)cc1C` (stereo not drawn), with inactive: 90%. `COC(=O)CCNC(=O)N1CCN(c2nnc(C)c3c(C)n(-c4ccc(Cl)cc4)nc23)CC1`: the survival is inactive: 96%. Next, `CC1CCN(c2oc(/C=C/c3ccc(F)cc3)nc2C#N)CC1`: inactive: 67%. On to `CCN(CC)c1ccc2c(c1)OC(N)=C(C#N)C2c1cccc(F)c1` (stereo not drawn), for which the survival was active: 2%. Then `CCOc1ccc(NC(=O)c2cc(S(=O)(=O)N3CCOCC3)ccc2F)cc1`, with inactive: 89%; and `CCCOC(=O)c1ccc(Cn2nnc3sc4c(c3c2=O)CCC(C)C4)cc1` (stereo not drawn), with inactive: 79%. For the compound `COc1ccccc1CNC(=O)c1cnc(N2CCCC2)nc1C`, the survival was inactive: 113%. Next, `CCc1c(C)sc2c1CCN(C(=O)Nc1ccc(F)c(Cl)c1)C2c1ccc(F)cc1` (stereo not drawn): active: 46%; `CCOc1ccc(-c2nc(Cn3c(=O)cc(C)c4c(C)nn(-c5ccc(C)cc5)c43)c(C)o2)cc1`: inactive: 94%.

Consider `COc1ccc(CCNC(=O)CCn2c(=O)c3ccccc3n(CC(=O)Nc3ccc(C)cc3C)c2=O)cc1OC`, for which the survival was inactive: 103%. As to `O=C(Nc1ccccc1)C1CCN(S(=O)(=O)c2ccc3[nH]c4c(c3c2)CCCCC4)CC1`, the survival is inactive: 90%.

In the case of `COc1ccccc1NC(=O)C1=C(C)Nc2nc(SCc3ccccc3)nn2C1c1cccnc1` (stereo not drawn), the survival was inactive: 61%. Then `CCOC(=O)Cn1c(=O)oc2cc(S(=O)(=O)N3CCN(c4ccc(C(C)=O)cc4)CC3)ccc21`, with inactive: 56%; and `CCOc1ccc(S(=O)(=O)c2cn(Cc3cc(C)ccc3C)c3ccc(OCC)cc3c2=O)cc1`, with inactive: 66%; and `COc1ccc(NC(=O)Cn2nc(C)c3nn(-c4ccc(Cl)cc4)c(C)c3c2=O)cc1`, with inactive: 85%. Consider `COc1cccc(Nc2nc3cc(Cl)c(Cl)cc3nc2-n2nc(C)cc2C)c1`, for which the survival is inactive: 98%.

For the compound `Cc1nonc1C(=O)N/N=C/c1ccccc1`, the survival is inactive: 105%. For `CCCCNC(=O)C1CCN(S(=O)(=O)c2ccc3c(ccn3CC)c2)CC1`, the survival is inactive: 99%.

For the compound `Cc1cc(C)c(NC(=O)c2ncoc2-c2ccco2)c(C)c1`, the survival was inactive: 87%.

In the case of `CC(C)NC(=O)C1CCN(C(=O)c2cc3sccc3n2Cc2ccc(Cl)cc2)CC1`, the survival was inactive: 65%. Turning to `O=C(Nc1ccc(Cl)cc1)N1CCN(c2ccc3nnc(-c4ccccc4)n3n2)CC1`, the survival is inactive: 72%. For the compound `O=c1[nH]c2cc3c(cc2cc1C(c1nnnn1C1CCCC1)N1CC=C(c2ccc(F)cc2)CC1)OCO3` (stereo not drawn), the survival is inactive: 79%. Next, `CCOc1ccc(NC(=O)c2cc3c(=O)n(Cc4cccs4)ccc3nc2C)cc1`: inactive: 71%; `O=C(C1CCC(Cn2c(=O)c3sccc3n(Cc3ccccc3F)c2=O)CC1)N1CCCCC1` (stereo not drawn): inactive: 131%; `COc1ccccc1N(CC(=O)NCCSCc1cccc(Cl)c1)S(C)(=O)=O`: inactive: 60%.

For the compound `CCCCC1(O)CC(C)(C)N([O])C(C)(C)C1`, the survival was inactive: 95%. Next, `CCOC(=O)c1c(C)[nH]c(CCC(=O)Nc2ccc(Cl)cc2C)c1C`: inactive: 90%. Next, `Cc1ccc(CNCc2c(C(=O)O)n(Cc3ccc(C)cc3)c3cc(C)ccc23)cc1`: active: 2%; `COC(=O)c1ccc(OC)c(CN2C(=O)N(c3ccc(C(C)=O)cc3)S(=O)(=O)c3ccccc32)c1`: inactive: 85%; `COc1ccc(-c2noc(CNS(=O)(=O)c3ccc(Br)cc3)n2)cc1OC`: inactive: 70%.

`Brc1ccc(-c2cc(-c3ccccc3)no2)cc1`: the survival is inactive: 74%. Then `Cc1ccc(-c2noc(CN(C(=O)COc3cc(C)cc(C)c3C)C(C)C)n2)cc1`, with active: -3%; and `Cc1cc(C)cc(NC(=O)CSc2nnc(-c3cc4occc4n3C)n2-c2ccccc2C)c1`, with inactive: 85%.

On to `COc1ccc2c(CNC3CCCCCC3)c(C(=O)O)n(Cc3cccc(F)c3)c2c1`, for which the survival was inactive: 86%. In the case of `O=S(=O)(NCCc1csc2nc(-c3ccccc3)nn12)c1ccc(Cl)s1`, the survival was inactive: 86%. Then `CCN(CC)CCSc1nnc2c3cc(F)ccc3n(C)c2n1`, with inactive: 171%; and `CCN(CC)C(=O)c1cc(-c2ccc(Cl)cc2)on1`, with active: 36%. Next, `CCN(C(=O)Cn1nnc2sc(-c3ccccc3)cc2c1=O)c1cccc(C)c1`: active: 50%.

With `Cc1cc(NC(=O)CCNS(=O)(=O)c2ccc3c(c2)oc(=O)n3C)ccc1Br`, the survival was inactive: 73%. As for `CCC(C)NC(=O)CSc1nc2n[nH]c(C)c2c(=N)n1-c1ccc(C)c(Cl)c1` (stereo not drawn), the survival was inactive: 73%. `CCSc1nnc(C2CCCN(CC(=O)N3CCN(c4ccccc4)CC3)C2)n1CC` (stereo not drawn): the survival was inactive: 81%. Next, `O=c1oc2ccccc2cc1-c1nnc(-c2cccc(Cl)c2)o1`: inactive: 108%; `CCc1ccc2[nH]c(=O)c(C(c3nnnn3Cc3ccccc3)N(Cc3ccccc3)Cc3ccco3)cc2c1` (stereo not drawn): inactive: 101%; `Cc1ccc2oc(=O)c3cnn(CC(=O)N4CCN(c5ccccc5)CC4)c3c2c1`: inactive: 123%. As to `COC(=O)c1c(NC(=O)CS(=O)(=O)c2ccc(C)cc2)sc2c1CCCC2`, the survival is active: -4%. As for `Cc1c(Cl)cccc1NC(=O)CCN1C(=O)c2ccccc2Sc2ncccc21`, the survival is inactive: 78%. Then `CC(=O)c1ccc(NC(=O)CN(C)S(=O)(=O)c2cccc3nsnc23)cc1`, with inactive: 98%; and `COc1ccccc1-c1cc2nc(C)c(CCC(=O)NCc3cccc(Cl)c3)c(C)n2n1`, with inactive: 80%; and `CCNc1ccc2c(Cl)cc(=O)oc2c1`, with inactive: 81%.

`CCCCn1c(C(C)NC(=O)c2ccccc2)nc2ccccc21` (stereo not drawn): the survival is inactive: 118%. Next, `CCOC(=O)C1CCCN(CCC(=O)Nc2cccc(C)c2)C1` (stereo not drawn): inactive: 86%; `c1ccc(CN2CCC(NC3CCCC3)CC2)cc1`: inactive: 96%. On to `O=C(NCCC(c1ccccc1)c1ccco1)c1cccs1` (stereo not drawn), for which the survival was inactive: 65%. Next, `O=C(Nc1nnc(S(=O)(=O)N2CCCc3ccccc32)s1)c1ccccc1`: active: 27%.
